Results as given in PubChem BioAssay AID588855 (National Center for Advancing Translational Sciences (NCATS), 2011).
About 5,000 (1.2%) of roughly 410,000 compounds were called active. Inconclusive results, whose numbers are uncertain, are shown with a selection of clear calls. Calls come from the whole dose curve; as a rule, active = well fitted inhibition curve with a large enough effect; inconclusive = small, poorly fitted or top-dose-only effect; inactive = no such curve, though single readings can be large or run the other way. Where the call is inconclusive, the potency comes from a doubtful curve fit.

Test: qHTS for Inhibitors of TGF-b; note: nearly all actives have a fitted effect of over 65% in size
Conditions: HepG2 CAGA-GFP TGF-b/SMAD3 reporter, GFP fluorescence, 18 h, TGF-beta stimulated, 500 pg/mL final; series mostly up to 46.1 µM; activity, negative = inhibition: at the top concentration
In short: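 GFP signal (ex488/em500-530) from TGF-beta-stimulated HEPG2 CAGA-GFP cells, 500 pg/mL final, 18 h at 37 degrees C in DMEM plus 1% FBS, normalized to unstimulated and DMSO-stimulated controls.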
% is set by controls: 0 for no effect and ±100 for the full control effect; potency is the fitted concentration of half-maximal effect; tags give direction and shape of the fitted curve.

Compound	activity, negative = inhibition	Potency
Cc1ccc(N(C(C)C(=O)N2CCN(Cc3ccccc3)CC2)S(C)(=O)=O)cc1 (stereo not drawn)	inactive: -0.333%	–
Cc1c(C(=O)Nc2nc(-c3ccc(F)cc3)ns2)oc2ccc(Cl)cc12	inactive: -22.1%	–
CCN(CC)c1ncnc2sc(C(=O)N3CCN(c4ccccc4)CC3)c(C)c12	–	inconclusive: 6.31 µM [inhibitor, single point]
O=C(NCCCNc1ccc(C(F)(F)F)cc1[N+](=O)[O-])c1ccc(Cl)cc1	–	inconclusive: 35.5 µM [inhibitor, single point]
Cc1ccc(CCNC(=O)CS(=O)Cc2nc(-c3ccccc3Cl)oc2C)cc1 (stereo not drawn)	–	inconclusive: 25.1 µM [inhibitor, single point]
Cc1ccc(Cl)cc1NC(=O)COC(=O)C12CC3CC(CC(C3)C1)C2	–	inactive
Cc1c(C(=O)N2CCN(Cc3ccc4c(c3)OCO4)CC2)sc2ncnc(N3CCN(c4ccccc4F)CC3)c12	–	active: 5.01 µM
Cc1ccc(OCCNC(=O)c2cccc(S(=O)(=O)N3CCN(Cc4ccccc4)CC3)c2)cc1	–	inconclusive: 10 µM [inhibitor, partial curve]
Cc1c2cnn(CC(=O)NCCN3CCOCC3)c(=O)c2c(C)n1Cc1ccccc1F	inactive: -3.92%	–
COc1ccccc1Nc1sc(C(=O)c2ccc(C)cc2C)c(N)c1S(=O)(=O)c1ccccc1	inactive: 1.95%	–
CCc1ccc(S(=O)(=O)c2nnn3c2nc(Nc2cc(OC)ccc2OC)c2sccc23)cc1	inactive: 93.3%	–
COc1ccc(C(=O)NC(=O)Nc2cc(C)ccn2)cc1	inactive: 4.35%	–
CSc1ccccc1NC(=O)C1(C)CCN1C(=O)CCC1CCCC1 (stereo not drawn)	–	inconclusive: 35.5 µM [inhibitor, single point]
CC(=O)Nc1ccc(-c2csc(NC(=O)Nc3ccccc3)n2)cc1	–	inconclusive: 11.2 µM [inhibitor, partial curve, poor fit]
CCc1cccc(CC)c1NC(=O)CN1CCN(S(=O)(=O)c2ccccc2)CC1	–	inconclusive: 35.5 µM [inhibitor, single point]
O=c1[nH]cnc2[nH]ncc12	inactive: -3.15%	–
C=CCC1(C#N)C(SC)=NC2=C(C(=O)CC(C)(C)C2)C1c1ccc(Br)cc1 (stereo not drawn)	–	inconclusive: 35.5 µM [inhibitor, single point]
Cc1sc(NC(=O)c2cc(-c3ccccc3)nc3ccccc23)c(C(N)=O)c1C	–	inconclusive: 28.2 µM [inhibitor, single point]
O=c1c(-c2ccccc2)n[nH]c2ccccc12	–	inconclusive: 6.31 µM [inhibitor, single point]
CCCCN1CC(O)=C(c2nc(-c3ccc(Cl)cc3)cs2)C1=N	inactive: -15.8%	–
CC1=C(C(=O)Nc2cccc(Cl)c2C)C2(CCCCCC2)OC1=O	inactive: -11.7%	–
Cc1cccc(OCC(O)Cn2c(=N)n(Cc3ccccc3)c3ccccc32)c1 (stereo not drawn)	–	inconclusive: 17.8 µM [inhibitor, single point]
Cc1ccc(NS(=O)(=O)c2ccc(NC(=O)[C@@H]3CCCC[C@@H]3C(=O)O)cc2)c(C)c1	–	inconclusive: 5.01 µM [inhibitor, single point]

Compound	activity, negative = inhibition	Potency
CCc1ccc2[nH]c(=O)c(CN(CCCN3CCOCC3)C(=O)Nc3cccc(Cl)c3)cc2c1	–	inconclusive: 35.5 µM [inhibitor, single point]
Cc1ccc(C2c3[nH]c4ccccc4c3C[C@H]3C(=O)N(c4ccccc4C(=O)NCCCN4CCOCC4)C(=O)N23)cc1 (stereo partly drawn)	–	inconclusive: 14.1 µM [inhibitor, single point]
COCCCN1C(=O)C(CC(=O)NCC2CCCCC2)CC(C(=O)N2CCOCC2)=C1C (stereo not drawn)	inactive: 13.2%	–
CCOC(=O)N1CCN(Cc2nc3cc(NC(=O)c4cccs4)ccc3n2CC)CC1	inactive: -9.39%	–
O=C(CSc1cccc2cccnc12)Nc1ccccc1F	–	inconclusive: 35.5 µM [inhibitor, single point]
Cc1cc(C)c(S(=O)(=O)/N=C2\C=C(NS(=O)(=O)c3ccccc3)C(=O)c3ccccc32)c(C)c1	inactive: -0.981%	–
O=C(Cn1c(-c2cccs2)cc2cc(F)ccc21)NCCCN1CCN(c2ccccc2F)CC1	–	inconclusive: 22.4 µM [inhibitor, single point]
Cc1ccc(COC(=O)c2nn(C)c(=O)c3ccccc23)cc1	–	inconclusive: 1 µM [inhibitor, full curve]
CCc1nc2ccc(C(=O)N3CCN(c4ccccc4)CC3)cn2c1N(CCC(C)C)CCN(C)C	–	inconclusive: 35.5 µM [inhibitor, single point]
COc1ccc(C(=O)N2CCCC2(C#N)c2ccccc2)cc1[N+](=O)[O-] (stereo not drawn)	inactive: -0.126%	–
Cc1ccc(N2C(=O)N3[C@H](c4ccc(Br)cc4)[C@@H]4C(=O)N(C(C)(C)C)C(=O)[C@@H]4[C@]3(C)C2=O)cc1	–	inconclusive: 35.5 µM [inhibitor, single point]
CCc1nc(OCc2ccco2)c2sc3nc4c(cc3c2n1)COC(C)(C)C4	–	inconclusive: 7.08 µM [inhibitor, partial curve]
COc1c(F)c(F)c(C(=O)Nc2cccc(Cl)c2N2CCOCC2)c(F)c1F	–	inconclusive: 35.5 µM [inhibitor, single point]
Cc1ccc(NC(=O)CN2C(=O)CCn3nc(-c4cccn4C)cc32)c(Cl)c1	inactive: -16.9%	–
Cc1ccc2c(c1)C(=O)C(=O)N2c1ccc(Cl)cc1	–	inconclusive: 11.2 µM [inhibitor, partial curve]
NC(=S)N/N=C/c1ccccc1[N+](=O)[O-]	inactive: 13.9%	–
Cn1c(=O)c2cc(NC(=S)NC3CCCCC3)ccc2n1Cc1ccc(Cl)cc1	inactive: -27.2%	–
CCCc1cc(=O)[nH]c(Nc2ccc(Cl)cc2)n1	–	inconclusive: 35.5 µM [inhibitor, single point]
O=C(Nc1cccnc1)c1cc(Br)c(Br)s1	inactive: 10.5%	–
Cc1ccc(OCCCOc2cccc3cccnc23)cc1C	–	inconclusive: 5.62 µM [inhibitor, single point]
CCNS(=O)(=O)c1ccc(S(=O)(=O)N(Cc2ccccn2)C2CCCCC2)cc1	inactive: -28.9%	–
COc1ccc(N/N=C/c2c(C(=O)O)ccc3ccccc23)cc1	–	active: 2.24 µM
O/N=C1/CCCCC1c1ccccn1 (stereo not drawn)	–	inconclusive: 3.16 µM [inhibitor, single point]

Compound	activity, negative = inhibition	Potency
Cc1cccc(NC(=O)C2CCN(S(=O)(=O)c3cccc4cccnc34)CC2)n1	inactive: -17.5%	–
CC(C)N(C(=O)[C@H]1C[C@H](CC(=O)NCCCN(C)C)C(=O)N2CCc3c([nH]c4cc(-c5ccco5)ccc34)[C@]12C)C(C)C	–	inconclusive: 11.2 µM [inhibitor, partial curve, poor fit]
OCC1(Cc2ccccc2)CCN(Cc2cnc(-c3ccc(Cl)cc3)nc2)CC1	–	active: 8.91 µM
CCc1ccc(NC(=O)CN2CCSc3ccc(S(=O)(=O)N4CCCC4)cc32)cc1	–	inconclusive: 11.2 µM [inhibitor, single point]
Cc1ccc(S(=O)(=O)N2CCCCC2)cc1NC(=O)COC(=O)C1CC2C=CC1C2 (stereo not drawn)	–	inconclusive: 35.5 µM [inhibitor, single point]
OC(CNC1CCCc2ccccc21)COc1c(Cl)cccc1Cl (stereo not drawn)	–	inconclusive: 35.5 µM [inhibitor, single point]
COc1ccc(C(CNC(=O)c2cccc([N+](=O)[O-])c2)N2CCOCC2)cc1 (stereo not drawn)	inactive: -15.8%	–
O=C(Nc1cccc(-c2nc3ccccc3s2)c1)c1cccs1	–	inconclusive: 17.8 µM [inhibitor, single point]
Cc1noc(C)c1COc1ccc(C(=O)Nc2nnc(CC(C)C)s2)cc1	–	inconclusive: 3.98 µM [inhibitor, single point]
O=S(=O)(NC1CC2CCC1C2)c1ccc(Br)s1 (stereo not drawn)	–	inconclusive: 2.82 µM [inhibitor, single point]
Cc1nnc(NC(=O)CN2CCN(Cc3ccc(F)cc3Cl)CC2)s1	–	inconclusive: 22.4 µM [inhibitor, single point]
COc1ccccc1NS(=O)(=O)c1ccc(C)c(C(=O)NCCCN2CCCC2=O)c1	inactive: -6.19%	–
O=c1cc(C(F)(F)F)[nH]c2c(C(F)(F)F)cccc12	–	inconclusive: 11.2 µM [inhibitor, partial curve, poor fit]
Cc1c(C(=O)Nc2ccc(S(=O)(=O)N(C)C3CCN(C)CC3)cc2)oc2c(Cl)cccc12	–	inconclusive: 35.5 µM [inhibitor, single point]
O=C(CN1C(=O)NC(Cc2c[nH]c3ccccc23)C1=O)Nc1ccc(F)c(F)c1F (stereo not drawn)	inactive: -11.4%	–
C[C@H](NC(=O)c1nc[nH]c1C(=O)N(C)Cc1ccccc1)C(=O)OC(C)(C)C	–	inconclusive: 22.4 µM [inhibitor, single point]
Cc1ccc2sc(N(CCN(C)C)C(=O)c3ccc4ccccc4c3)nc2c1C	–	inconclusive: 6.31 µM [inhibitor, single point]
O=C(/C(=C/O)N=Nc1ccc(Cl)cc1)c1ccncc1	–	inconclusive: 35.5 µM [inhibitor, single point]
Cc1ccc(-c2nc3c(cnn3-c3ccccc3)c(=O)n2-c2cccc(Cl)c2)cc1	–	inconclusive: 17.8 µM [inhibitor, partial curve, poor fit]
Nc1cccc(C#Cc2ccc3c(c2)C(=O)/C(=C/c2ccsc2)O3)c1	–	inconclusive: 35.5 µM [inhibitor, single point]
COc1cc(OC)c(N(C)C(=O)C2CCCN(c3ncnc4c3nc3n4CCCCC3)C2)cc1Cl (stereo not drawn)	–	inconclusive: 22.4 µM [inhibitor, single point]
Cc1c(Cl)cccc1NC(=S)NNc1ncc(C(F)(F)F)cc1Cl	–	inconclusive: 35.5 µM [inhibitor, single point]
